Consider six molecules from PMC12136788.

First the molecules themselves.
T1: UNK ZnF1-3 (human, UniProt Q9C0B0 31-174)
T1 sequence: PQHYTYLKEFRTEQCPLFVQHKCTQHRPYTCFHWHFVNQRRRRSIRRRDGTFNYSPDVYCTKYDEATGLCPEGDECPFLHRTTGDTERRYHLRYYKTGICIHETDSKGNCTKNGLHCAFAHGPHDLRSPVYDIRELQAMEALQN

B1: chr7:125879632:125879633:+_ENSMUSG00000033904_ENSMUST00000106557|mus_mus|FALSE|FALSE (ssRNA)
RNA: GGGAGUUCUACAGUCCGACGAUCUAUUACUAUGUUCUCUGAGAUCCGGAUUGCUUAUUAAAUAGCCCUUUAUUCUCUCCUAUGUAAAGCAUGCUAGAAAAAGAAGACUGAAAAAACAAACAAUAUAGACUAACUAGAACUAGCCAACAGAGGAUUGAGCAUCA
B2: chr10:33190432:33190433:-_ENSG00000150093_ENST00000302278|hu_mus|hu_hu_hu_mus_True|1_8 (ssRNA)
RNA: GGGAGUUCUACAGUCCGACGAUCUACAUUUUCCAAACCUGCAUGUGAAUAAAACCCUGGCCACAGAGCCCCAAAACUACCCUACUGUGACUAAGAUGCUGCUGCUGUGAGCUUGGUGUUGCAAAAUUUUGCACGGGCAGUACUCAACAGAGGAUUGAGCAUCA
B3: chr4:128995729:128995730:-_ENSMUSG00000057236_ENSMUST00000102598|mus_hu|motif|central (ssRNA)
RNA: GGGAGUUCUACAGUCCGACGAUCCUCUCCAAUUUUACUUAAAUCCCAGACAUUCAGUCUGCGAUCAGUACCACUGGAAGCGGAAAUAGUCUCAUUGUGAGGUGACCACUGAACCUGGAAUAUUUCAUCCUUAUGUGACUCAAACAACAGAGGAUUGAGCAUCA
B4: 133030908_133036614_852_CDS_ENSMUSG00000028013_ENSMUST00000029644|mouse|control|control (ssRNA)
RNA: GGGAGUUCUACAGUCCGACGAUCAGGGCUAUCGCAGAUGUGCACAUUUACACAACUGAUGGCUCCCUUGUCACACUUCUUCAUAACCAUCUCUUUCCAACGUUCAUGUGCAGAGUUAAUAACGUCGAGGGCGAAAGCCUUGUUCAACAGAGGAUUGAGCAUCA
B5: 90695599_90699647_638_3pUTR_ENSMUSG00000027282_ENSMUST00000136872|mouse|control|control (ssRNA)
RNA: GGGAGUUCUACAGUCCGACGAUCCGAGGAAUGAGACCCGCAAAAAAUCCUACGAUGCCUUCUUCCCGGUAGAUGGUUACUAUGGAGUCACACAGUCCACAGUACUUAGACUCUCUGCCAAUAAACUGUACCAUGGACCUCAGACAACAGAGGAUUGAGCAUCA
B6: chr3:9412954:9412955:+_ENSG00000134077_ENST00000452837|hu_mus|hu_hu_hu_mus_False|28_38 (ssRNA)
RNA: GGGAGUUCUACAGUCCGACGAUCGGUUGAUAUCUCUUCUUUGAUGGCUGGAUUUUCAUAAUAGUCCAAGAUAUGUGAAUCUGAAGUGCUGCUGGCAAACUCUUUUUUAACAUUUCUCUCAUCUGCUUUGUCUCCUUGUCCACACAACAGAGGAUUGAGCAUCA

The list shows a part of the results.

The experiment concerns the target T1, UNK ZnF1-3. The experiment can be described thus: nsRBNS (natural sequence RNA bind-n-seq); RBNS binding buffer (assumed for nsRBNS): 25 mM Tris pH 7.5, 150 mM KCl, 3 mM MgCl2, 0.01% Triton X-100, 500 ug/ml BSA, 20 U/ml SUPERase-In, 4 C; UNK is unkempt and MSI1 is Musashi-1; names of the RNAs are library labels; protein concentration not given here; high values mean tight binding.
B1 showed a binding signal of 1.25 enrichment R.

As for B2, the binding signal is 1.24 enrichment R.

With B3, the binding signal was determined as 0.817 enrichment R.

Take B4: the binding signal was found to be 0.736 enrichment R.

For the molecule B5, the binding signal turned out to be 1.33 enrichment R.

B6 showed a binding signal of 0.522 enrichment R.
